This note sets out measurements from PubChem BioAssay (NCI).

Some test systems named below: K-562 leukemia; SK-OV-3 ovarian; NCI-H522 lung; OVCAR-8 ovarian; CAKI-1 renal; U251 CNS; LOX IMVI melanoma; KM12 colon; HCC-2998 colon; HCT-15 colon; SF-268 CNS; RPMI-8226 leukemia; SK-MEL-2 melanoma; BT-549 breast; ACHN renal; A549 NSCLC; EKVX NSCLC; DU-145 prostate; SK-MEL-28 melanoma; COLO 205 colon; CCRF-CEM leukemia; MOLT-4 leukemia; HOP-92 NSCLC; OVCAR-5 ovarian; SF-295 CNS; NCI-H460 lung; HCT-116 colon; HOP-62 NSCLC.

Common to all, as to assay: NCI tumour cell line growth inhibition, 48 h

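Protocol summary: plate cells (96-well), add compound at 5 concentrations, incubate 48 h, interpolate endpoints linearly. The concentration for 50% growth inhibition is given as GI50.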 Certain results were filed several times, with different values. This list holds those alone. The source may hold further records. For some of these results: The tests behind the records often covered other concentration ranges, which the source does not state; a value can be the end of its range.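 Definition used: TGI = concentration required for complete inhibition of growth.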 For some of these results: The records of an entry are repeats across runs, samples, wells, individuals or studies. What stands in brackets tells the records apart. A, B and so on number the origins entry by entry. *1 amine or outer side, *2 acyl side, *3 side chain or, on linkers, in order; H or OH if unused. Where a SMILES comes first, the peptide text is derived from it. Bridges are numbered along the chain shown (N, C = ends). Roman numbers before positions name the chains, in order. [ ]: non-standard residue; d: D form. Actinocin(1to9) = Cc1c2oc3c(C)ccc(C(=O)[*:2])c3nc-2c(C(=O)[*:1])c(N)c1=O; NMeV = CN[CH](C(=O)O)C(C)C; Sar = CNCC(=O)O

As for `COc1cc2c(cc1OC)[C@@H](Nc1ccc(C#N)cc1)C1COC(=O)[C@@H]1C2c1cc(OC)c(O)c(OC)c1` (some centres undefined), the GI50 in the test with K-562 leukemia was 109 nM and 1.15 µM; with RPMI-8226 leukemia it was < 9.5 nM and 117 nM. Moreover, the TGI with K-562 leukemia is 553 nM and 21.5 µM; with SK-OV-3 ovarian, 782 nM and > 100 µM; in the test with NCI-H522 lung it was 6.21 µM and 89.9 µM; in the test on OVCAR-8 ovarian, 2.92 µM and > 100 µM; in the test with CAKI-1 renal, 95 µM and 2.66 µM; in the test on U251 CNS it was 558 nM and > 100 µM. In addition, the TGI in the test on LOX IMVI melanoma is 8.33 µM and > 100 µM; with KM12 colon, 6.97 µM and > 100 µM; in the test on HCC-2998 colon, 2.21 µM and 34.3 µM; in the test on HCT-15 colon, 2.64 µM and > 100 µM; in the test with SF-268 CNS, 4.34 µM and > 100 µM.
With `O=[N+]([O-])c1cccc2nc3ccccc3c(NCCCn3ccnc3[N+](=O)[O-])c12`, the TGI in the test with SK-MEL-2 melanoma is 0.698 nM and > 100 µM; in the test on K-562 leukemia it was 0.304 nM and > 100 µM; in the test with BT-549 breast, 0.877 nM and 48 nM; in the test with ACHN renal, 0.785 nM and > 100 µM; in the test on A549 NSCLC it was 0.618 nM and 10.5 nM; in the test with KM12 colon it was 1.56 nM and 53.9 nM. Also, the TGI is 4.67 nM and > 100 µM in the test with EKVX NSCLC; 0.541 nM and 14.1 nM in the test on DU-145 prostate; 2.55 nM and 332 nM with HCT-15 colon; 15.3 nM and > 100 µM in the test with SK-MEL-28 melanoma; 0.544 nM and 15.3 nM in the test with COLO 205 colon; 224 nM and > 100 µM with SF-268 CNS. For the same compound, the TGI in the test on CCRF-CEM leukemia was 281 nM and > 100 µM; with MOLT-4 leukemia, 17.8 nM and 10.8 µM; in the test with HOP-92 NSCLC, 0.894 nM and 13.6 nM; in the test on OVCAR-5 ovarian, 1.42 nM and 45.5 nM.
Take `CCC(C)C1NC(=O)C(NC(=O)c2c3nc4c(C(=O)NC5C(=O)NC(C(C)CC)C(=O)N6CCCC6C(=O)N(C)CC(=O)N(C)C(C(C)C)C(=O)OC5C)ccc(C)c4oc-3c(C)c(=O)c2N)C(C)OC(=O)C(C(C)C)N(C)C(=O)CN(C)C(=O)C2CCCN2C1=O` (centres undefined) (I: TIP[Sar][NMeV] / II: TIP[Sar][NMeV]; ester I:1-I:C, II:1-II:C; linker I:N-II:N via Actinocin(1to9); configuration not given here): the TGI in the test on SF-295 CNS is 27.7 nM and 523 nM; in the test on NCI-H460 lung it was 121 nM and 12.2 µM; in the test with HCT-116 colon it was 163 nM and 10.9 µM; in the test on HOP-62 NSCLC it was 21.4 nM and 17.1 µM.
For `CN(c1ncccc1CNc1nc(Nc2ccc3c(c2)CC(=O)N3)ncc1C(F)(F)F)S(C)(=O)=O`, the TGI with CCRF-CEM leukemia is > 80.3 µM [sample A, mean of 2 tests] and 7.81 µM [sample B, 1 test].
